Data published in the supplement of paper PMC11417369.
± gives the standard deviation of the averaged measurements. This is one part of the list.

test system: PfAP2-EXP AP2 domain (GST-tagged); experiment: gcPBM binding intensity (ln(normalized median fluorescence intensity)); higher = stronger DNA binding
Method in brief: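 GST-tagged P. falciparum DNA-binding domains, expressed in E. coli (about 25 μg on average), were applied for 1 h to an Agilent 4 × 180k array of primer-extended double-stranded 36-bp intergenic genomic probes plus negative controls. The binding buffer was 1× PBS with 1% milk, 0.2 mg/ml BSA, 0.5% salmon testes DNA and 0.03% Triton X-100. Bound protein was detected with Alexa488 anti-GST antibody and scanned at 488 nm. Binding intensity is the highest Masliner-normalised natural-log median intensity across replicate spots of either probe orientation.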

Sequence | gcPBM binding intensity (ln)
CCCTTTTATTAAAATTCACACACATAAATTTTTATA [CACACA_site8611] | 8.53 ± 0.39
TTACCGTAAAAATTTTGTACATAAAATAATATATAA [XGTACX_site532] | 8.66 ± 0.37
GTATGTGTGTCAAGTCGTACTTACCTTTAAATTTTT [XGTACX_site2507] | 8.91 ± 0.43
GATATAAAATATTGGTGTACTTTTTTTTTTTTTTTT [XGTACX_site7174] | 8.485 ± 0.021
CACATACATATATATACACACAAATATATATACACA [CACACA_site8164] | 8.48 ± 0.39
GAGTGAGCTAATAAAAGTACGTAATAAACAAACGCA [XGTACX_site131] | 8.93 ± 0.47
ACCATGAAAATATTATGTACATATGTATTATATATA [XGTACX_site408] | 8.56 ± 0.32
ATAGCTGTATTTAATACACACAAAACTTTCATTCCA [CACACA_site5868] | 8.49 ± 0.42
TTTTTTTGTTTTGTTTTTTTTTTTTTTTTTTTTTTG [CACACA_negctrl_site570] | 8.09 ± 0.51
TTAAAAAAAAAACACACACACATACACATATATATA [CACACA_site3299] | 8.77 ± 0.33
TTTTTATATTTTTGCACACATTCTTTACTCTTCAAA [CACACA_site2210] | 9.19 ± 0.39
TATATATATGGACACACACACATATAAATAAATAAA [CACACA_site4406] | 8.74 ± 0.36
TGTGAAGTACCGAATGTGCACTGTGTGTGTTCTTTT [GTGCAC_site9613] | 8.84 ± 0.18
ATAATTAATAAATAATGTACATATATATTATATTTT [XGTACX_site8546] | 8.23 ± 0.21
TTTTTTTTTTTTTTTTTTTCTATTTTACTGTTTCGT [CACACA_negctrl_site850] | 8.04 ± 0.4
ATATAATAGTTATATTGTACATAAATTATACACCTT [XGTACX_site628] | 8.47 ± 0.34
GACAAAAAATTAAAATAAAATAATAATATAATAAAA [GTGCAC_negctrl_site234] | 8.35 ± 0.38
ATACGCACACATATATGTACATATTGTATATATATA [XGTACX_site3962] | 9.065 ± 0.007
TATAAACACCCATATAAACACACATATAAACCAACA [CACACA_site8790] | 8.73 ± 0.43
ACAATTTACACTTAAACACACAAAAAAAAATTATAT [CACACA_site2065] | 8.5 ± 0.64
ACATATATATTCATATGTACATATACATACATACAT [XGTACX_site4563] | 9.23 ± 0.27
TGTTTTATTTTATTAGTGCATTTTTATTTATAATAG [GTGCAC_site9453] | 8.82 ± 0.26
AAGGTAGAAATATGTTGTACGGTTTGGAGGAAGCAA [XGTACX_site1105] | 8.95 ± 0.38
GCATCGATCAAACATACACACATGGTTAATAAAAAT [CACACA_site8651] | 8.62 ± 0.59
